About 17,000 (4.4%) of roughly 390,000 compounds were called active. Inconclusive results, whose numbers are uncertain, are shown with a selection of clear calls. The call rests on the fitted dose curve; in most records, active means well fitted inhibition curve with a large enough effect; inconclusive means small, poorly fitted or top-dose-only effect; inactive means no such curve, though single readings can be large or run the other way. Potencies of inconclusive entries are doubtful fits and often do not repeat.
Target: Lysine-specific demethylase 4A (Homo sapiens) (UniProt O75164)
Assay: qHTS Assay for Inhibitors of JMJD2A-Tudor Domain; further: nearly all actives have a fitted effect of over 50% in size
Conditions: AlphaScreen JMJD2A-Tudor / H3K4me3 peptide binding; activity change, negative = inhibition: at 114 µM (top of the series)
On the % scale 0 is the no-effect control and ±100 the full control effect; potency means the concentration at half of the fitted maximal effect; tags describe the fitted curve by direction and shape.

Chain of UniProt O75164 (O75164 whole entry, looked up, the tested form may be a part): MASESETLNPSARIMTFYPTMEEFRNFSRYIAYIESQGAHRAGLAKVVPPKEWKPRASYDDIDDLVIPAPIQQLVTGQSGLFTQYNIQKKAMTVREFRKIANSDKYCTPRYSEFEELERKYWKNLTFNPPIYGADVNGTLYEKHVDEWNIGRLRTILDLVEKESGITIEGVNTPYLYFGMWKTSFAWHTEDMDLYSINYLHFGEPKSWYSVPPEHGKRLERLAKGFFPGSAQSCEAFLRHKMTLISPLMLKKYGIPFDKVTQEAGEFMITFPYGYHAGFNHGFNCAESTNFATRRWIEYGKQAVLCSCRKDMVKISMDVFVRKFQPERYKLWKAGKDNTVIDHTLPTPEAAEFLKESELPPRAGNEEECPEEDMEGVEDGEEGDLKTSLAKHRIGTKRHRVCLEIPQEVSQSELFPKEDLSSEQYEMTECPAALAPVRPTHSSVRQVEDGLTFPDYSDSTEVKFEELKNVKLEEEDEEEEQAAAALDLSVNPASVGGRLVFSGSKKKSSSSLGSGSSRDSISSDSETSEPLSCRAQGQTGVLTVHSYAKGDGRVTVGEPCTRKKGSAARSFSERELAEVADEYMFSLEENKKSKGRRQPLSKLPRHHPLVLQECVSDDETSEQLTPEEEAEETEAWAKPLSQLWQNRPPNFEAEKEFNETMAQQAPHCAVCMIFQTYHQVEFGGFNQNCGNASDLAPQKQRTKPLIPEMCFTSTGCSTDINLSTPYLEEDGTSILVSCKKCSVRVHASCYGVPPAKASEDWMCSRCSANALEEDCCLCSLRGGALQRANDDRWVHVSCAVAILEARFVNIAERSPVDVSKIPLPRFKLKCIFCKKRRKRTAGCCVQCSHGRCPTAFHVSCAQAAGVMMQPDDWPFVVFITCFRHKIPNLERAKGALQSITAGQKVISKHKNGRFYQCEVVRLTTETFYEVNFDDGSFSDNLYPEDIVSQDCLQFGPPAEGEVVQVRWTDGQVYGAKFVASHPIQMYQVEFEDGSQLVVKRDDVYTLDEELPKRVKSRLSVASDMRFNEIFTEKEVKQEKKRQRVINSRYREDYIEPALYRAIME

Activity change, negative = inhibition, inactive:
COCCn1c(SCC(=O)NC2CCCC(C)C2C)nc2ccccc2c1=O (centres undefined) 4.08%
CC1=C(C(=O)OCc2ccccc2)C(c2ccccc2Cl)NC(=O)N1CCCCCC(=O)O (centres undefined) -4.17%
O=C(NNC(=O)c1cc(-c2ccc(Cl)cc2)nc2ccccc12)c1csc(N2CCOCC2)n1 -13.8%
Cc1ccc(Cl)cc1NC(=O)Cn1cc(S(=O)(=O)Cc2ccccc2Cl)c2ccccc21 -15.2%
O=S(=O)(c1ccccc1)N1CCC2(CC1)OCCN2S(=O)(=O)c1cccs1 -13.1%
Cc1ccc(NC(=O)c2ccccc2SCC(=O)N2CCCC2)cc1S(=O)(=O)N(C)C -15.4%
CCOc1ccc(Br)cc1CNCCN1CCOCC1 -25.3%
O=C(/C=C/c1ccc(F)cc1)NCCCn1ccnc1 -1.42%
Oc1c(C(c2ccc(Cl)cc2)N2CCOCC2)sc2nc(-c3ccco3)nn12 (centres undefined) -17.5%
O=C(/C(=C/O)N=Nc1ccccc1Cl)c1ccccc1 -26.3% [at 11.4 µM]
CCOC(=O)N1CCN(C(=O)c2cnn(-c3cccc(F)c3)c2-n2cccc2)CC1 -11%
N#Cc1c(-c2ccccc2)cc(-c2ccccc2)nc1SCC(=O)Nc1ccc(Cl)cc1 7.27%
CC(C)(C)OC(=O)N[C@@H](Cc1ccccc1)C(=O)NCC1CCC(C(=O)N[C@@H](CC(=O)O)C(=O)O)CC1 (some centres undefined) -12.5%
CC[n+]1c(/C=C(\C)Nc2ccccc2)sc2ccccc21 -24.1%
Cc1ccc(C(=O)Nc2cccc(S(=O)(=O)N3CCCC3)c2)o1 -27.6%
CC(C)Cc1ccc(S(=O)(=O)Nc2ccccn2)cc1 -12.3%
COc1ccc(C(=O)C2CCCN(Cc3cccn3-c3cccnc3)C2)cc1OC (centres undefined) -35.9%
CCNc1nc(Oc2ccc(OCC(=O)OC)nn2)nc(N2CCOCC2)n1 -5.84%
CCCCN1C(=O)c2ccccc2C1C(=O)NC1CCCC1 (centres undefined) -4.38%
COc1ccc(CN2CCCC(N3CCN(c4ccc(OC)cc4)CC3)C2)cc1 (centres undefined) -25.2%
S=C(NCCCn1ccnc1)NC1CCCCC1 -3.52%
O=C(Nc1ccc(S(=O)(=O)N2CCCCC2)cc1)c1cccnc1Cl -0.984%
Cn1nnnc1Sc1ncnc2scc(-c3ccc(C(=O)OC(C)(C)C)cc3)c12 -26%
Cc1nn(-c2ccccc2)c(C)c1C(=O)OCC(=O)NCc1ccco1 -28.4%
CCc1ccccc1NC(=O)c1cc(S(=O)(=O)N(C)C)ccc1N1CCCC1 -6.62%

Potency, active:
CC1CC(C)CN(CCOc2ccc(Cl)cc2Cl)C1 (centres undefined) 2.82 µM
CC1=C(C(=O)Nc2cccc(C(F)(F)F)c2)C(c2ccccn2)n2ncnc2N1 (centres undefined) 50.1 µM
N#CCCN(Cc1cccnc1)C(=S)NC(=O)c1ccco1 22.4 µM
CCN(CC)c1ccc(NC(=O)c2sc3nc(-c4ccccc4)cn3c2C)cc1 28.2 µM
NC(=O)c1cc2c3ccccc3ccn2c1-c1ccccc1 31.6 µM
COc1ccc(C2=C(N3CCN(c4cc(Cl)ccc4C)CC3)c3ccccc3C2=O)cc1 6.31 µM
COc1cc(OC)c2c(C)cc(=O)oc2c1C(CCN1CCCC(C)C1)c1ccc(N(C)C)cc1 (centres undefined) 28.2 µM
CCOC(=O)COc1ccc(S(=O)(=O)N2CCN(c3ccc(OC)cc3)CC2)cc1 28.2 µM
C1=CCC(CN2CCN(C3CCCCCC3)CC2)CC1 (centres undefined) 1 µM
CCOC(=O)c1cc2c(ccn2C)n1Cc1cc(C)ccc1C 25.1 µM
CCN(CC)c1ccc(NC(=O)c2ccc3c(c2)c(C)c(C)n3C)cc1 17.8 µM
CSc1ccc(NC(=O)Nc2ccc(C(=O)NCC(=O)O)cc2)cc1 56.2 µM
Nc1nc(C2C(=O)CCCC2=O)cs1 10 µM

Potency, inconclusive:
O=C(C1=C(Nc2ccccc2)c2ccccc2S(=O)(=O)N1)c1ccccc1 50.1 µM [inhibitor, partial curve]
O=C(Cn1c(SCCOc2ccccc2Cl)nc2ccccc21)N1CCCCC1 56.2 µM [inhibitor, partial curve]
COc1ccccc1OCC(=O)N1CCCC(Nc2ccc(C)c(C)c2)C1 (centres undefined) 44.7 µM [inhibitor, full curve, poor fit]
Nc1nc(SCC(=O)Nc2cccnc2Cl)n[nH]1 14.1 µM [inhibitor, full curve]
COC(=O)[C@@H](N)CS 79.4 µM [inhibitor, single point]
COC(=O)c1ccc(C2/C(=C(/O)c3ccc4c(c3)CC(C)O4)C(=O)C(=O)N2CCN2CCOCC2)cc1 (centres undefined) 50.1 µM [inhibitor, partial curve]
CC(=O)c1cccc(NC(=O)c2ccc(-c3ccccc3[N+](=O)[O-])o2)c1 56.2 µM [inhibitor, partial curve]
C/C(=N\Nc1cccc(Cl)c1)c1ccc(-n2ccnc2)cc1 79.4 µM [inhibitor, partial curve]
O=C(/C=C/c1ccc(-c2ccccc2[N+](=O)[O-])o1)c1ccc(F)cc1 11.2 µM [inhibitor, full curve]
COc1ccc(NC(=O)CSc2ccc([N+](=O)[O-])cc2)cc1S(=O)(=O)N1CCOCC1 35.5 µM [inhibitor, partial curve]
CCOc1ccc(NC(=S)Nc2cccc3ccccc23)cc1 50.1 µM [inhibitor, partial curve]
O=C1N=C2SCCN2/C1=C\c1c(Cl)cccc1Cl 56.2 µM [inhibitor, partial curve]
Cc1cc(C)cc(NC2=C(N)C(=O)c3ccccc3C2=O)c1 3.16 µM [inhibitor, full curve]
CCOC(=O)N1CCN(C2=C(NS(=O)(=O)c3ccccc3)C(=O)c3ccccc3C2=O)CC1 25.1 µM [inhibitor, partial curve]
O=C(O)c1ccc(C(=O)O)c(C(=O)c2ccccc2)c1 100 µM [inhibitor, single point]
O=C(Cn1ncc2c1-c1ccccc1OC2)Nc1nc2ccccc2s1 89.1 µM [inhibitor, partial curve, poor fit]
NNc1nc(N)c2c(n1)-c1ccccc1CC21CCCC1 79.4 µM [inhibitor, partial curve]
COc1ccc2cc(C(=O)NCc3ccccc3)c(=Nc3ccc(C(=O)O)cc3)oc2c1 56.2 µM [inhibitor, partial curve]
COc1ccc(NC(=O)CCSc2ccc(C)cc2)cc1 31.6 µM [inhibitor, single point]
CCOC(=O)CNC(=O)CCc1nnc2ccc(N3CCC(C)CC3)nn12 11.2 µM [inhibitor, partial curve, poor fit]
CC(=O)Nc1ccc(S(=O)(=O)NCCSc2ccccn2)cc1 44.7 µM [inhibitor, partial curve]
CC(=O)[C@@H]1[C@@H]2C(=O)N(Cc3ccccc3)C(=O)[C@@H]2C2c3ccccc3C=CN21 (some centres undefined) 56.2 µM [inhibitor, partial curve]
COc1ccc(-c2[nH]ncc2CN2CCCCCCC2)c(OC)c1 39.8 µM [inhibitor, full curve, poor fit]
CCn1cc(C(=O)O)c(=O)c2cc(F)c(N3CCN(S(=O)(=O)c4ccc(NC(=O)OC)cc4)CC3)cc21 79.4 µM [inhibitor, single point]
Cc1cc(C)c(NC(=O)CCCCCNC2CCCCC2)c(C)c1 31.6 µM [inhibitor, partial curve]
O=S(=O)(NCC(c1ccco1)N1CCc2ccccc21)c1ccccc1 (centres undefined) 35.5 µM [inhibitor, full curve, poor fit]
COC(=O)C1=C(C(=O)OC)[C@@H]2N(Cc3ccccc3)c3ccccc3[C@@]23C[C@@H](C(=O)OC)N(C(C)=O)C3=N1 56.2 µM [inhibitor, partial curve]
N#Cc1c(-c2cccc(Br)c2)cc(-c2ccco2)[nH]c1=O 50.1 µM [inhibitor, partial curve]
CC1(C)N([O-])c2cc([N+](=O)[O-])ccc2[N+]1=O 89.1 µM [inhibitor, single point]
CCN(CC)C(=O)COc1ccc2oc(C)c(C(=O)OC)c2c1 3.98 µM [inhibitor, single point]
COc1ccc(CCn2c(=N)c(C(=O)NCCN3CCOCC3)cc3c(=O)n4cccc(C)c4nc32)cc1OC 50.1 µM [inhibitor, partial curve]
COc1ccc(CN2CCNC(=O)C2CC(=O)NCCc2nc(C)c(C)s2)cc1C (centres undefined) 31.6 µM [inhibitor, partial curve]
c1ccc(C2Nc3cccc4cccc(c34)N2)cc1 50.1 µM [inhibitor, partial curve]
COC(=O)[C@@]12CCCCN1[C@H](c1ccc(-c3cccc(Cl)c3)c(OC)c1)[C@H]1C(=O)N(C)C(=O)[C@H]12 56.2 µM [inhibitor, partial curve]
COc1ccccc1Oc1ccccc1C(=O)O 89.1 µM [inhibitor, single point]
CCc1n[nH]c(=S)n1/N=C/c1ccc(N(C)c2ccccc2)cc1 39.8 µM [inhibitor, full curve]

From PubChem BioAssay AID504339 (National Center for Advancing Translational Sciences (NCATS), 2011)
